# Source: the supplement of paper PMC10126150
# Values marked as one replicate rest on one cluster of the flow cell; about a third of the high ones do not repeat.
# System: ATP
# Assay: switch fluorescence ratio, 500 uM ATP over buffer (Cy3 cluster intensity, sum of 5 cycles each) (fold (ratio)); higher = stronger signal-on switching upon ATP binding; sequences stand for … in TCGTCGGCAGCGTCAGATGTGTATAAGAGACAGTTTTTTTTTTTTTTTTTTTTTTTTT…TC
# Conditions: aptamer strand: ATP DNA aptamer (quencher-CACCTGGGGGAGTATTGCGGAGGAAGG + anchor), 100 nM annealed; ATP concentration: 500 uM; one replicate
# Outline: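 Switching-strand clusters labelled with Cy3 on a modified Illumina MiSeq flow-cell were annealed to 100 nM quencher-labelled ATP aptamer, imaged in selection buffer, and re-imaged after 15 min with 500 uM ATP at 22 °C. This was done over five cycles with NaOH stripping and re-annealing in between. The fluorescence ratio is summed target-cycle over summed buffer-cycle Cy3 intensity per cluster, averaged per switch-domain sequence, excluding clusters outside 100-1000 RFU.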
# 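Further: ATP exposure 15 min at 22 °C before imaging.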
row,Sequence,switch fluorescence ratio
1,TTTCGAGGCA,1.35
2,TTTCGCCCCG,1.11
3,TTTCGCCTGG,0.979
4,TTTCGCTGGT,1.3
5,TTTCGCTTTA,1.02
6,TTTCGG,1.04
7,TTTCGGCAGC,1.05
8,TTTCGGCCGG,1.06
9,TTTCGGGTTC,2.15
10,TTTCGGTAGA,1.02
11,TTTCGGTCTC,1
12,TTTCGTCCCT,1.03
13,TTTCGTCGCT,1.16
14,TTTCGTGGCC,1.07
15,TTTCGTTCAC,1.32
16,TTTCGTTCAG,0.988
17,TTTCGTTCG,1.03
18,TTTCTAAGCT,1
19,TTTCTAATCG,1.02
20,TTTCTACTCA,0.981
21,TTTCTTACT,0.958
22,TTTCTTCAA,1

row,Sequence,switch fluorescence ratio
1,TTTGAAAATC,1.05
2,TTTGAAGAGA,0.957
3,TTTGAATCAA,1
4,TTTGACACCA,1.1
5,TTTGACTCGC,1.52
6,TTTGAGCTAA,0.993
7,TTTGAGGGCA,1.04
8,TTTGATGCTC,1.06
9,TTTGCAAAGC,1.07
10,TTTGCACTTA,1.12
11,TTTGCAGCGA,1.04
12,TTTGCATCAG,0.968
13,TTTGCCACAA,1.97
14,TTTGCCCGGA,1.01
15,TTTGCCCTAT,1.01
16,TTTGCGGCCC,1.03
17,TTTGCTAATC,1.06
18,TTTGCTAGGG,0.955
19,TTTGCTGTGC,1.07
20,TTTGCTTGA,1
21,TTTGGAACAG,0.962
22,TTTGGAGAAC,1.02

row,Sequence,switch fluorescence ratio
1,TTTGGATAGG,1.06
2,TTTGGCGCTA,0.973
3,TTTGGCTCTC,0.973
4,TTTGGG,1
5,TTTGGGCGGA,1.04
6,TTTGGTAAAT,1.04
7,TTTGGTCGCG,0.999
8,TTTGGTGGGC,0.992
9,TTTGTAAGG,1
10,TTTGTACATG,1.03
11,TTTGTACTCT,0.947
12,TTTGTAGTCG,0.987
13,TTTGTCACTT,1.02
14,TTTGTCCGTT,1.04
15,TTTGTCTACT,1.01
16,TTTGTGCCTA,0.961
17,TTTGTTCAC,0.992
18,TTTGTTGG,0.985
19,TTTGTTGTTC,0.989
20,TTTGTTTACG,1.02
21,TTTTAAAGAC,0.976
22,TTTTAAGTAA,1.23

row,Sequence,switch fluorescence ratio
1,TTTTACCGTC,1.32
2,TTTTACCTTA,1.06
3,TTTTACGGA,1.04
4,TTTTACT,1.03
5,TTTTAGGATA,1
6,TTTTAGGATC,0.982
7,TTTTATCTA,0.998
8,TTTTATGGTC,1.01
9,TTTTCAATT,1.03
10,TTTTCACGA,0.977
11,TTTTCCACTA,1.04
12,TTTTCCATCT,1.02
13,TTTTCCCCCA,1.03
14,TTTTCCCCGA,1.22
15,TTTTCCCCGC,1.65
16,TTTTCCCTTT,1.04
17,TTTTCGACAC,1.06
18,TTTTCGCCCG,1.08
19,TTTTCGTCAT,0.928
20,TTTTCGTCGA,1.03
21,TTTTCTCGTT,0.978
22,TTTTCTTAGC,1.05

row,Sequence,switch fluorescence ratio
1,TTTTGAACCT,2.06
2,TTTTGACGGG,0.967
3,TTTTGAGCAG,0.977
4,TTTTGAGTCT,0.94
5,TTTTGCACAC,1.02
6,TTTTGCCAAG,1.01
7,TTTTGCCAGC,0.968
8,TTTTGCCCTT,1.02
9,TTTTGCCGAC,0.942
10,TTTTGCGGG,0.945
11,TTTTGGATAG,0.98
12,TTTTGGTTCT,0.956
13,TTTTGTATCT,0.977
14,TTTTTAGCTC,4.07
15,TTTTTCGT,1.01
16,TTTTTGCAAG,1.06
17,TTTTTGCGTG,0.98
18,TTTTTGGAG,0.985
19,TTTTTTGAG,1
